In PubChem BioAssay AID1645887 (National Center for Advancing Translational Sciences (NCATS), 2021):
Several values for one entry are separate records, joined by “and”; a condition that tells them apart may be missing. Equal entries are not always repeated. About 40 (0.2%) of roughly 16,000 compounds were called active. Inconclusive results (about 1%) are left out. The call rests on the fitted dose curve; in most records, active means well fitted activation curve with a large enough effect; inconclusive means small, poorly fitted or top-dose-only effect, or another doubt; inactive means no such curve, though single readings can be large or run the other way. The list shows a part of the results.

target: Rap guanine nucleotide exchange factor 4 (Homo sapiens) (UniProt Q8WZA2); experiment: Validation qHTS for agonist of cAMP-regulated guanine nucleotide exchange factor 4 (EPAC2); conditions: EPAC2 Rap1B BODIPY-GDP exchange, fluorescence; activation: hits give high values;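 further: exchange makes BODIPY-GDP fluorescence drop when released from Rap1B; series mostly up to about 150 µM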
Chain of UniProt Q8WZA2 (Q8WZA2 whole entry, looked up): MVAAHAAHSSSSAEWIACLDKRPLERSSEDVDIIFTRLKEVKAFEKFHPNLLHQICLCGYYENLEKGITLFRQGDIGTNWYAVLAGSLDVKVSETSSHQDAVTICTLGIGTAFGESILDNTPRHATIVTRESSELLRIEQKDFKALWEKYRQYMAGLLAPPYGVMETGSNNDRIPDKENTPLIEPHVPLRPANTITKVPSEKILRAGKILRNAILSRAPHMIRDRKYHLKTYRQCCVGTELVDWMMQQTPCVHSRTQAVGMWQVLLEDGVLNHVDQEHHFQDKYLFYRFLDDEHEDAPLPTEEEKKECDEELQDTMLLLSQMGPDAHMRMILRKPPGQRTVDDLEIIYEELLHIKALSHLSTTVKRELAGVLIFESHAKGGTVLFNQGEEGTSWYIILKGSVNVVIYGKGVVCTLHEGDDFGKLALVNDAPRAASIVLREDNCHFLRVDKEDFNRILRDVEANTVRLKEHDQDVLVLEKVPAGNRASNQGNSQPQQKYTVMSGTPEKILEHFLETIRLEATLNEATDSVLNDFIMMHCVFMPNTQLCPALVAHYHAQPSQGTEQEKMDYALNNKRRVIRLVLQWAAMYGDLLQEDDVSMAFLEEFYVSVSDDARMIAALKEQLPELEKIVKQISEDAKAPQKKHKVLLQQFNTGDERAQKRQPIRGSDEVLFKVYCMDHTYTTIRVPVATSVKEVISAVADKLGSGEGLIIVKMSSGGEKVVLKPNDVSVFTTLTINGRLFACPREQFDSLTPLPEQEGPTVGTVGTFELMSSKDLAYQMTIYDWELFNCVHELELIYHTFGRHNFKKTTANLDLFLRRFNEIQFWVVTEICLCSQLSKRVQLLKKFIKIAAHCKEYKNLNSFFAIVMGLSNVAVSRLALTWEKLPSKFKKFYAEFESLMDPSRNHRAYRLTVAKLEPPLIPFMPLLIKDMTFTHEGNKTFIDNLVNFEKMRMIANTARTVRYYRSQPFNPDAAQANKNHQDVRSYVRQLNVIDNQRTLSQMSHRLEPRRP
Summary of the method: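 Signal normalized against 6.5 mM cAMP as agonist control. Mix of EPAC2 (100 nM), RAP1B-BODIPY-GDP (250 nM) and GDP (50 uM) was read kinetically at 480/540 nm, every 5 min over 30 min, after 5 min room-temperature incubation with compound.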
On the % scale 0 is the no-effect control and ±100 the full control effect.

activation, inactive:
O=C(NCC1Cc2cccc(-c3ccccn3)c2O1)c1cnn2cccnc12 (configuration not stated) -1.78%
Cc1cnc(SCc2ccccn2)nc1C1CCCN(C(=O)c2ccc3[nH]c(C)c(C)c3c2)C1 (configuration not stated) -8.56%
Cc1noc(C)c1-c1nc(N2CCN(C)CC2)c2ccccc2n1 -8.41%
CN(Cc1ccco1)c1cc(-c2ccccc2C(F)(F)F)ncn1 -0.577%
CC(C)C[C@H](NC(=O)[C@H](O)[C@H](N)Cc1ccccc1)C(=O)O -25.6%
CCC1CN(CC(=O)NC(c2ccccn2)C(F)(F)F)Cc2cc(OC)ccc2O1 (configuration not stated) -15.1%
N#Cc1cc2c(OCC(O)CN3CCN(C(c4ccccc4)c4ccccc4)CC3)cccc2[nH]1 (configuration not stated) 3.77% and 15.8%
H-LVVYPWTQR-OH 5.88%
CC(C)(C)NCC(O)COc1cccc2c1CCC(=O)N2 (configuration not stated) -27%
N#C/C(=C\c1ccc(-c2cc(Cl)ccc2Cl)o1)C(=O)Nc1cccc2ncccc12 -31.5%
Cc1ccc(C)c(CN2C[C@H](Sc3ccccn3)C[C@H]2C(=O)Nc2ccc3sc(C)nc3c2)c1 -7.66%
CN1CCN(c2ncnc3ccc(-c4ccc5c(c4)OCO5)cc23)CC1 -3.74%
C[C@@H](CSc1ccccc1)CN1CC[C@H](O)CCC1=O -11.4%
Cn1c(=O)c(-c2cccs2)nc2cnc(OCc3ccccc3)nc21 -7.81%
O=S(=O)(c1ccccc1)N1CCC2(CC1)CN(Cc1nccs1)C2 0.857%
CC/C=C\C/C=C\C/C=C\CCCCCCCCCC(=O)O -0.394%
CCCC(=O)O[C@]1(C(=O)COC(=O)CC)CC[C@H]2[C@@H]3CCC4=CC(=O)CC[C@]4(C)[C@H]3[C@@H](O)C[C@@]21C 2.43%
COc1ccc(OC)c(C(O)CNC(=O)CN)c1 (configuration not stated) -5.51% and -0.879%
CC(S)C(=O)NCC(=O)O (configuration not stated) -3.77%
CN(C)CCN1C(=O)c2ccccc2N(C)c2ccccc21 -18.6%
CC(=O)N1CCC2(CC1)CN(Cc1ccc(C#N)cc1)C2 3.2%
CN=C(NC#N)NCCSCc1csc(N=C(N)N)n1 2.39% and -1.99%
Nc1ncc2[nH]cnc2n1 5.11%
COc1cccc(-c2nc3cc(SC)ccc3cc2CN(C(=O)c2csc(C)n2)C2CC2)c1 -16.5%
CC(C)NCC(O)COc1ccccc1-n1cccc1 (configuration not stated) -6.22%
Cn1c(=O)c(-c2cc(F)cc(F)c2)nc2cnc(Oc3ccccc3)nc21 -2.97%
C=CC(=O)Nc1cc2c(Nc3ccc(F)c(Cl)c3)ncnc2cc1OCCCN1CCOCC1 -20.7%
CN(C)c1ncc2nc(-c3ccc(F)cc3)c(=O)n(CCc3ccccc3)c2n1 1.33%
Cc1cccc(N(C)C(=S)Oc2ccc3c(c2)CCC3)c1 13.3%
COc1ccc(NC(=O)N2CC3(CCN(C(=O)c4ccncc4)CC3)C2)cc1 -10.6%
CC(C)[N+]1(C)[C@@H]2CC[C@H]1CC(OC(=O)C(CO)c1ccccc1)C2 (some centres not stated) 2.46% and -1.87%
C[C@](O)(C(=O)Nc1ccc(S(=O)(=O)c2ccccc2)cc1)C(F)(F)F 4.3%
COC(=O)C1CCN(Cc2ccc3c(c2)CN(C(=O)c2cc(-c4ccc(C)o4)[nH]n2)CCO3)CC1 -5.45%
CN(C)Cc1ccccc1-c1nccc(NCc2cccs2)n1 1.02%
COC(=O)N1CCC2(CC1)CN(c1ccc(-c3ccccc3)cc1)C2 5.3%
C=CCN1CCc2nc(N)sc2CC1 -12.1%
CCC1(C2CCN(Cc3cccc4ccccc34)CC2)NC(=O)N(Cc2ccc3c(c2)OCO3)C1=O (configuration not stated) -3.5%
Cc1ccc(C(=O)Nc2cccc(-c3nc(CNC(=O)[C@@H]4C[C@@H](C)NC(=S)N4)c(C)o3)c2)s1 -13.2%
CN(Cc1ccco1)c1nc(-c2ccoc2)nc2ccccc12 -6.08%
O=C(NCC1CCC2(CCN(Cc3cccc4ncccc34)CC2)O1)c1ccccc1 (configuration not stated) -0.825%
CN(C)C(=O)c1ccc(-c2cc(Nc3ccccc3)ncn2)cc1 -18.3%
CC(=O)N/N=C/c1ccc([N+](=O)[O-])o1 -11.9%
Cc1noc(C)c1-c1ccc2ncnc(NCc3ccccc3)c2c1 -29.2%
COc1ccc(-n2c(=O)c(-c3cc(F)cc(F)c3)nc3cncnc32)cc1 -11.6%
OCC[N+]1(CCc2ccccc2)CCOCC1 -14.3%
Cc1cccc(CNc2cc(-c3ccc(N(C)C)cc3)ncn2)c1 -11.8%
CC(=O)C1=C(O)C=C2Oc3c(C(C)=O)c(O)c(C)c(O)c3[C@]2(C)C1=O 8.06%
C[C@H]1O[C@@H](n2cc(F)c(=O)[nH]c2=O)[C@H](O)[C@H]1O -17.6%
Cc1ccc(CN2CCc3nnc(C(NS(C)(=O)=O)C(C)C)n3CC2)cc1C (configuration not stated) -15.7%
COc1ccccc1-c1cncnc1NCc1cnc(C)cn1 -4.96%
CCCCCCCCCCCCCCCCOCC(CO)OC (configuration not stated) -20.3%
CCOC(C)=O -37%
COc1cccc(-c2nc(NCc3ccc(OC)cc3OC)c3ccccc3n2)c1 21.2%
O=C(CCc1ccc(O)cc1)c1c(O)cc(O)cc1O -16.6% and -9.82% and -69.4%
COC(=O)[C@]12CCC(C)(C)C[C@@H]1[C@@H]1C(=O)C=C3[C@@]4(C)C=C(C#N)C(=O)C(C)(C)[C@@H]4CC[C@@]3(C)[C@]1(C)CC2 -54.4%
CN1C(=O)C[C@@H](C(=O)N[C@@H](Cc2cnc[nH]2)C(=O)N2CCC[C@H]2C(N)=O)NC1=O -1.11%
Cc1cnc(CNc2ncnc3ccc(-c4ccoc4)cc23)cn1 -6.69%
O=c1[nH]c2cc([N+](=O)[O-])c([N+](=O)[O-])cc2[nH]c1=O -4.19% and -13.7% and -4.61%
Cc1c[nH]c2ccccc12 -13.5%
N#CCCn1c(=O)c(-c2ccc(Cl)cc2)nc2cnc(N3CCNCC3)nc21 7.04%
CCCOC(=O)C1NC(=O)N2C(C(=O)OCCC)C(C)(C)S[C@H]12 (some centres not stated) -14.2%
CC(=O)/C(C)=N\O 4.61%
O=c1cc(-c2ccc(O)cc2)oc2ccc(O)cc12 -12.4%
O=C(c1ccccc1)C(O)c1ccccc1 (configuration not stated) 8.5%
C=CCNC(N)=S -12.2%
COC(=O)[C@@H]1CCCN1Cc1ccc2c(c1)CN(Cc1ccccc1F)CCO2 -1.07%
CN(C)CCOC(C)(c1ccccc1)c1ccccn1 (configuration not stated) -21.1% and 6.34% and -9.81%
CC(=O)OC1CC2C(C)(C)C(O)CC(O)[C@@]2(C)C2CC[C@@]3(C)C(=CC(=O)OC3c3ccoc3)[C@]12C (some centres not stated) -15.4%
COc1cccc(-c2nc3cc4c(cc3cc2CN(C(=O)c2csc(C)n2)C2CC2)CCC4)c1OC -1.9%
Cn1ccc(O)c(C#N)c1=O 5.96%
Cn1c(=O)c(CCc2ccccc2)nc2cncnc21 -3.67%
CCCCCCCCCCCCCCC[C@H](O)[C@H](N)CO -46.1%
C[N+](C)(C)CCO 6.78% and -21.1% and 1.78%
COC(=O)/C=C/c1cc(O)ccc1O -3.84%
COc1ccc(-c2cc(=O)c3cc(OC)ccc3o2)cc1 -8.25%
COc1ccc(-c2oc3c(CC=C(C)C)c(O[C@H]4OC(CO)C(O)C(O)C4O)cc(O)c3c(=O)c2O[C@@H]2OC(C)C(O)C(O)C2O)cc1 (some centres not stated) -14.7%
N[C@@](C(=O)O)(c1ccc(P(=O)(O)O)cc1)C1CC1 -4.69%
C=CC(C1=CC(=O)C(OC)=CC1=O)c1ccc(OC)cc1 (configuration not stated) -0.548%
O=C(c1c(O)c2ccc(Cl)cc2[nH]c1=O)C1CC1 -27.3% and -6.46%
CC(C)(C#N)c1cc(Cn2cncn2)cc(C(C)(C)C#N)c1 4.51%
CC(C)Cn1cnc2c1c(=O)n(C)c(=O)n2C -4.85%
COc1ccc(-c2nc3cnc(Oc4cccc(Cl)c4)nc3n(C[C@H]3CCCO3)c2=O)cc1 -21.3%
CO[C@H]1C[C@H](O[C@H]2[C@H](C)[C@@H](O[C@@H]3O[C@H](C)C[C@H](N(C)C)[C@H]3O)[C@@H](C)C[C@]3(CO3)C(=O)[C@H](C)[C@@H](O)[C@@H](C)[C@@H](C)OC(=O)[C@@H]2C)O[C@@H](C)[C@@H]1O 1.37%
COc1ccc(-c2nc3cnc(OC)nc3n(Cc3ccc(F)cc3)c2=O)cc1 0.142%
Oc1c(I)cc(Cl)c2cccnc12 -7.91% and 3.48%
O=C(Oc1ccccc1)N1CCC2(CC1)CN(c1ncccn1)C2 -0.759%
C[C@@H](O)[C@H]1C(=O)N2C(C(=O)O)=C(S[C@@H]3CN[C@H](CNS(N)(=O)=O)C3)[C@H](C)[C@H]12 10.3%
